In the supplement of paper PMC8728848:
The list shows a part of the results.

How the values were obtained:
Assay in all cases: glycan array binding signal (z-score within array); higher = stronger binding
Settings in all cases: glycan notation: IUPAC condensed, linker removed
[1] = target: GalNAc(b1-4)GlcNAc
Outline: (§1)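 Glycan array data came from 3228 arrays in the Consortium for Functional Glycomics database, and only arrays with an available protein sequence were kept. Glycan names were put into IUPAC-condensed notation, and columns mapping to the same glycan were averaged. The binding signal is a within-array Z-score, averaged across arrays of one protein sequence run at different concentrations or buffers and across linkers. A negative Z-score can be read as non-binding.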

[2] = target: GalNAc(b1-4)GlcNAc(b1-2)Man
Outline: as §1

[3] = target: GalNAc(b1-4)GlcNAc(b1-2)Man(a1-3)[GalNAc(b1-4)GlcNAc(b1-2)Man(a1-6)]Man(b1-4)GlcNAc(b1-4)GlcNAc
Outline: as §1

[4] = target: GalNAc(b1-4)GlcNAc(b1-3)GalNAc(b1-4)GlcNAc
Outline: as §1

[5] = target: GalNAc(b1-4)GlcNAc6S
Outline: as §1

[6] = target: GalNAc(b1-6)GalNAc
Outline: as §1

[7] = target: GalNAc3S(b1-4)GlcNAc
Outline: as §1

[8] = target: GalNAc3S(b1-4)GlcNAc3S
Outline: as §1

[9] = target: GalNAc3S(b1-4)[Fuc(a1-3)]GlcNAc
Outline: as §1

[10] = target: GalNAc4S6S(b1-4)GlcNAc
Outline: as §1

[11] = target: GalNAc6S(b1-4)GlcNAc
Outline: as §1

[12] = target: Glc(a1-4)Glc
Outline: as §1

[13] = target: Glc(a1-4)Glc(a1-4)Glc(a1-4)Glc
Outline: as §1

[14] = target: Glc(a1-6)Glc(a1-6)Glc
Outline: as §1

[15] = target: Glc(a1-6)Glc(a1-6)Glc(a1-6)Glc
Outline: as §1

[16] = target: Glc(b1-4)Glc
Outline: as §1

[17] = target: Glc(b1-6)Glc
Outline: as §1

[18] = target: GlcA(b1-3)Gal
Outline: as §1

[19] = target: GlcA(b1-3)GlcNAc
Outline: as §1

[20] = target: GlcA(b1-6)Gal
Outline: as §1

[21] = target: GlcA3S(b1-3)Gal(b1-4)GlcNAc(b1-2)Man
Outline: as §1

[22] = target: GlcA3S(b1-3)Gal(b1-4)GlcNAc(b1-3)Gal(b1-4)Glc
Outline: as §1

[23] = target: GlcNAc(a1-3)Gal(b1-4)GlcNAc
Outline: as §1

[24] = target: GlcNAc(a1-4)Gal(b1-3)GlcNAc
Outline: as §1

[25] = target: GlcNAc(a1-4)Gal(b1-4)GalNAc
Outline: as §1

[26] = target: GlcNAc(a1-4)Gal(b1-4)GlcNAc
Outline: as §1

[27] = target: GlcNAc(a1-4)Gal(b1-4)GlcNAc(b1-3)Gal(b1-4)Glc
Outline: as §1

[28] = target: GlcNAc(a1-4)Gal(b1-4)GlcNAc(b1-3)Gal(b1-4)GlcNAc
Outline: as §1

[29] = target: GlcNAc(a1-4)Gal(b1-4)GlcNAc(b1-3)Gal(b1-4)GlcNAc(b1-3)Gal(b1-4)GlcNAc
Outline: as §1

[30] = target: GlcNAc(a1-4)Gal(b1-4)GlcNAc(b1-3)Gal(b1-4)[Fuc(a1-3)]GlcNAc(b1-3)Gal(b1-4)[Fuc(a1-3)]GlcNAc
Outline: as §1

[31] = target: GlcNAc(a1-6)Gal(b1-4)GlcNAc
Outline: as §1

[32] = target: GlcNAc(b1-2)Gal(b1-3)GalNAc
Outline: as §1

[33] = target: GlcNAc(b1-2)Man(a1-3)[GlcNAc(b1-2)Man(a1-6)]Man(b1-4)GlcNAc(b1-4)GlcNAc
Outline: as §1

[34] = target: GlcNAc(b1-2)Man(a1-3)[GlcNAc(b1-2)Man(a1-6)]Man(b1-4)GlcNAc(b1-4)[Fuc(a1-6)]GlcNAc
Outline: as §1

[35] = target: GlcNAc(b1-2)Man(a1-3)[GlcNAc(b1-4)][GlcNAc(b1-2)Man(a1-6)]Man(b1-4)GlcNAc(b1-4)GlcNAc
Outline: as §1

[36] = target: GlcNAc(b1-2)Man(a1-3)[GlcNAc(b1-4)][GlcNAc(b1-2)Man(a1-6)]Man(b1-4)GlcNAc(b1-4)[Fuc(a1-6)]GlcNAc
Outline: as §1

[37] = target: GlcNAc(b1-2)[GlcNAc(b1-4)]Man(a1-3)[GlcNAc(b1-2)Man(a1-6)]Man(b1-4)GlcNAc(b1-4)GlcNAc
Outline: as §1

[38] = target: GlcNAc(b1-2)[GlcNAc(b1-4)]Man(a1-3)[GlcNAc(b1-4)][GlcNAc(b1-2)Man(a1-6)]Man(b1-4)GlcNAc(b1-4)GlcNAc
Outline: as §1

[39] = target: GlcNAc(b1-2)[GlcNAc(b1-4)]Man(a1-3)[GlcNAc(b1-4)][GlcNAc(b1-2)[GlcNAc(b1-6)]Man(a1-6)]Man(b1-4)GlcNAc(b1-4)GlcNAc
Outline: as §1

[40] = target: GlcNAc(b1-2)[GlcNAc(b1-4)]Man(a1-3)[GlcNAc(b1-4)][GlcNAc(b1-2)[GlcNAc(b1-6)]Man(a1-6)]Man(b1-4)GlcNAc(b1-4)[Fuc(a1-6)]GlcNAc
Outline: as §1

[41] = target: GlcNAc(b1-2)[GlcNAc(b1-6)]Man(a1-6)[GlcNAc(b1-2)Man(a1-3)]Man(b1-4)GlcNAc(b1-4)GlcNAc
Outline: as §1

[42] = target: GlcNAc(b1-2)[GlcNAc(b1-6)]Man(a1-6)[GlcNAc(b1-2)Man(a1-3)]Man(b1-4)GlcNAc(b1-4)[Fuc(a1-6)]GlcNAc
Outline: as §1

[43] = target: GlcNAc(b1-2)[GlcNAc(b1-6)]Man(a1-6)[GlcNAc(b1-4)][GlcNAc(b1-2)Man(a1-3)]Man(b1-4)GlcNAc(b1-4)GlcNAc
Outline: as §1

[44] = target: GlcNAc(b1-3)Fuc
Outline: as §1

[45] = target: GlcNAc(b1-3)Gal
Outline: as §1

Binder: APVPVTKLVCDGDTYKCTAYLDFGDGRWVAQWDTNVFHTG [PhoSpL (Pholiota squarrosa)]
- glycan array binding signal (z-score) [1]: -0.203
- glycan array binding signal (z-score) [2]: -0.272
- glycan array binding signal (z-score) [3]: 1.41
- glycan array binding signal (z-score) [4]: -0.043
- glycan array binding signal (z-score) [5]: 0.542
- glycan array binding signal (z-score) [6]: -0.175
- glycan array binding signal (z-score) [7]: -0.197
- glycan array binding signal (z-score) [8]: -0.287
- glycan array binding signal (z-score) [9]: -0.027
- glycan array binding signal (z-score) [10]: 0.039
- glycan array binding signal (z-score) [11]: 0.332
- glycan array binding signal (z-score) [12]: 0.172
- glycan array binding signal (z-score) [13]: -0.783
- glycan array binding signal (z-score) [14]: 0.306
- glycan array binding signal (z-score) [15]: 0.27
- glycan array binding signal (z-score) [16]: 0.154
- glycan array binding signal (z-score) [17]: -0.373
- glycan array binding signal (z-score) [18]: -0.094
- glycan array binding signal (z-score) [19]: -0.562
- glycan array binding signal (z-score) [20]: 0.147
- glycan array binding signal (z-score) [21]: -0.16
- glycan array binding signal (z-score) [22]: -0.416
- glycan array binding signal (z-score) [23]: -0.459
- glycan array binding signal (z-score) [24]: -0.307
- glycan array binding signal (z-score) [25]: 0.004
- glycan array binding signal (z-score) [26]: -1.04
- glycan array binding signal (z-score) [27]: -0.996
- glycan array binding signal (z-score) [28]: -0.245
- glycan array binding signal (z-score) [29]: -0.567
- glycan array binding signal (z-score) [30]: 0.068
- glycan array binding signal (z-score) [31]: -0.158
- glycan array binding signal (z-score) [32]: 0.026
- glycan array binding signal (z-score) [33]: -0.238
- glycan array binding signal (z-score) [34]: 4.77
- glycan array binding signal (z-score) [35]: -0.516
- glycan array binding signal (z-score) [36]: 0.877
- glycan array binding signal (z-score) [37]: -0.235
- glycan array binding signal (z-score) [38]: -0.113
- glycan array binding signal (z-score) [39]: -0.367
- glycan array binding signal (z-score) [40]: 0.301
- glycan array binding signal (z-score) [41]: -0.309
- glycan array binding signal (z-score) [42]: 4.35
- glycan array binding signal (z-score) [43]: -0.268
- glycan array binding signal (z-score) [44]: -0.421
- glycan array binding signal (z-score) [45]: -0.377
